# Experimental data as given in PubChem BioAssay AID1345082 (National Center for Advancing Translational Sciences (NCATS), 2018).
# About 4,000 (4.3%) of roughly 94,000 compounds were called active. The inconclusive results got no clear call from the source; some entries with a clear call stand among them for comparison. The call rests on the fitted dose curve; in most records, active means well fitted inhibition curve with a large enough effect; inconclusive means small, poorly fitted or top-dose-only effect; inactive means no such curve, though single readings can be large or run the other way. Where the call is inconclusive, the potency comes from a doubtful curve fit.
# Test: Cytotoxic Profiling in NIH 3T3 Cell Line of Diverse Libraries Using Quantitative High-Throughput Screening; further: nearly all actives have a fitted effect of over 55% in size
# Conditions: NIH 3T3 viability, CellTiter-Glo ATP luminescence, 48-72 h; activity change, negative = cytotoxicity: at 96.7 µM (top of the series) unless noted; series mostly up to 96.7 µM
# Outline: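 Viability of NIH 3T3 cells after 48 or 72 hr compound treatment at 37 °C was assessed by CellTiter-Glo, with luminescence imaged following a 10 min room-temperature step.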
# On the % scale 0 is the no-effect control and ±100 the full control effect; potency means the concentration at half of the fitted maximal effect; tags describe the fitted curve by direction and shape.
Compound,Potency,"activity change, negative = cytotoxicity",outcome
CC(C)(C)c1cc(C[C@H]2CNCC[C@H]2CC(=O)NC2CCCCC2)no1,"inconclusive: 100 µM [inhibitor, partial curve, poor fit]",–,–
COc1ccc(CN2CC(CN[S+](=O)([O-])c3ccccc3)C3(C2)CN(c2ccccc2)C3)cc1O (stereo not given),active: 22.4 µM,–,–
CN(Cc1ccccn1)C(=O)CC(c1cccc(O)c1)c1ccccc1Cl (stereo not given),"inconclusive: 79.4 µM [inhibitor, partial curve]",–,–
O=C(NCc1cccc(Cl)c1)c1cc(-c2cccc(C(F)(F)F)c2)c2nncn2n1,–,inactive: -20.5%,–
CCOc1cccc(CN2CCC3(Cc4ccccc4CNC3=O)C2)c1 (stereo not given),–,inactive: -16%,–
O=C(C1CC1)N(C1CCOCC1)C1CCN(S(=O)(=O)c2ccccc2)CC1,–,inactive: -15.4%,–
COc1ccc(Cl)cc1C(=O)N1CCN(c2cc(-c3cccs3)[nH]n2)CC1,"inconclusive: 31.6 µM [inhibitor, partial curve]",–,–
CC(=O)N1CCCC2(C1)CN(C)c1ccc(C(=O)NC(C)C)cc12 (stereo not given),"inconclusive: 100 µM [inhibitor, partial curve, poor fit]",–,–
Cc1ccccc1-n1nc(C)c(CCC(=O)NC(C)C)c1Oc1cccc(F)c1,"inconclusive: 44.7 µM [inhibitor, partial curve, poor fit]",–,–
Cc1nnc(-c2cc(C(=O)NCC(C)C)ccn2)n1CCc1ccccc1,"inconclusive: 31.6 µM [inhibitor, partial curve, poor fit]",–,–
COc1ccc(-c2cn3cc(C(=O)N4CCCCC4)nc3s2)cc1,"inconclusive: 44.7 µM [inhibitor, partial curve, poor fit]",–,–
CC(=O)N1CCC(N2CC[C@H](c3nc4ccccc4s3)C2)CC1,–,–,inactive [at 174 µM]
NC(=O)Cc1c[nH]c2ncc(-c3ccc(F)cc3)cc12,"inconclusive: 89.1 µM [inhibitor, partial curve]",–,–
CCc1nc(NC(=O)C2CC(=O)N(c3n[nH]c4cc(Br)ccc34)C2)sc1C (stereo not given),"inconclusive: 70.8 µM [inhibitor, single point]",–,–
O=C(C1CCCC1)N1CC2(CCN(Cc3ccc(Cl)cc3)C2)OCc2ccccc21 (stereo not given),"inconclusive: 44.7 µM [inhibitor, partial curve, poor fit]",–,–
COc1ccccc1-c1ccc(CN2CCCCC2C(=O)NCc2ccc(C(F)(F)F)cc2)cc1 (stereo not given),"inconclusive: 15.8 µM [inhibitor, full curve]",–,–
N#Cc1ccc(CN2CC[C@H]3C(=O)NCCCCCCN(Cc4ccncc4)[C@@H]3C2)cc1,"inconclusive: 50.1 µM [inhibitor, partial curve, poor fit]",–,–
COc1ccc(NC(=O)N2CCC(C)(c3noc(C)n3)CC2)cc1OC,–,inactive: -14.8%,–
O=C(Cc1ccsc1)N1CC(Oc2ccccc2-c2nc(C3CC3)no2)C1,"inconclusive: 44.7 µM [inhibitor, partial curve, poor fit]",–,–
O=C(NCC1CCCCC1)c1ccc2nc(-c3ccccn3)oc2c1,"inconclusive: 50.1 µM [inhibitor, partial curve, poor fit]",–,–

Compound,Potency,"activity change, negative = cytotoxicity",outcome
COc1ccc(CCNC(=O)c2c(C)noc2-c2ccco2)cc1OC,–,inactive: -6.57%,–
O=C(c1cn(Cc2ccc(Cl)cc2)nn1)N1CCCC(OCc2cccnc2)C1 (stereo not given),"inconclusive: 56.2 µM [inhibitor, partial curve, poor fit]",–,–
O=C(N1CCC(Cc2nc(C3CCOCC3)no2)CC1)C1(c2ccccc2)CC1,–,inactive: -16.8%,–
O=c1c2c3c(nn2ccn1Cc1cc(F)cc(F)c1)CCCC3,"inconclusive: 44.7 µM [inhibitor, partial curve, poor fit]",–,–
COC1CCCN(c2ncccc2-c2cc(-c3ccccc3)nc3c(C)noc23)C1 (stereo not given),"inconclusive: 89.1 µM [inhibitor, partial curve]",–,–
Cc1cccc(-c2nc(C3CC(=O)N(c4ccc(Cl)cc4)C3)no2)c1 (stereo not given),"inconclusive: 50.1 µM [inhibitor, partial curve, poor fit]",–,–
CCOC(=O)[C@H]1[C@@H](O)C(=O)N(Cc2ccccc2)C12CCN(C(=O)N(C)C)CC2,"inconclusive: 50.1 µM [inhibitor, partial curve, poor fit]",–,–
COc1ccc(Nc2ccc3c(n2)CN(Cc2ccccc2C)C(=O)CO3)cn1,"inconclusive: 89.1 µM [inhibitor, partial curve]",–,–
CC(C)(C)CN1CCOC[C@H]1c1ncc(-c2ccc(F)cc2)[nH]1,"inconclusive: 100 µM [inhibitor, partial curve]",–,–
CN(C)c1nccnc1OC1CCN(C(=O)CCc2ccccc2)C1 (stereo not given),"inconclusive: 50.1 µM [inhibitor, partial curve, poor fit]",–,–
CN1[C@@H](CCC(=O)N2CCN(c3ccccc3)CC2)CNC(=O)[C@@H]2[C@H]1CCN2Cc1csnn1,"inconclusive: 35.5 µM [inhibitor, partial curve, poor fit]",–,–
CC1(c2ccccc2)N(Cc2ccccc2)C(=O)OC12CCN(Cc1cccnc1N)CC2 (stereo not given),"inconclusive: 44.7 µM [inhibitor, partial curve, poor fit]",–,–
CC(C)N1CC[C@H](c2nc3ccc(C(F)(F)F)cc3[nH]2)C1,–,inactive: -24.7% [at 174 µM],–
COCc1ccc2c(c1)c(OC(C)(C)C(=O)Nc1ccn(C)n1)nn2CCC(C)C,"inconclusive: 89.1 µM [inhibitor, partial curve]",–,–
Cc1noc([C@H]2CCN(C(=O)NCc3ccc(F)cc3)C[C@H]2NC(=O)C2CCOCC2)n1,–,inactive: -2.77%,–
Cc1noc(C)c1[S+](=O)([O-])NCCNC(=O)c1cccc(-c2ncccc2C#N)c1,–,–,inactive
COc1ccc(CNC(=O)[C@@H]2C[C@@H](c3ccc(F)cc3)N(Cc3ccccc3)C2)cc1OC,–,inactive: -20.9%,–
CCN1C[C@H]2COc3cc(OC)ccc3[C@H]2N(C(=O)CC2CCCC2)CCC1=O,"inconclusive: 50.1 µM [inhibitor, partial curve, poor fit]",–,–
COc1ccc(-c2noc(-c3nc(Cc4ccccc4)no3)n2)cc1OC,"inconclusive: 70.8 µM [inhibitor, single point]",–,–
COc1ccccc1-c1ccc2c(C(=O)NCCc3ccc(F)cc3)nn(C)c2n1,"inconclusive: 70.8 µM [inhibitor, single point]",–,–
